# Data reported in publication PMC6919601, “Identification of Plasmodium dipeptidyl aminopeptidase allosteric inhibitors by high throughput screening” (PLoS ONE, 2019).
# About 230 (0.21%) of roughly 110,000 compounds showed an effect of 50% or more. The list shows a part of the results.
# Target: DPAP1 (Plasmodium falciparum, UniProt Q8IIJ9)
# Test: primary screen, percent inhibition; read by cleavage of a fluorogenic dipeptide substrate; higher = more effect of the substance
# Set-up: species or system P. falciparum D10 trophozoite lysates; single well
# 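Further: 30 min substrate incubation versus DMSO and 10 µM JCP410 controls.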
# Chain of DPAP1 (Q8IIJ9 whole entry, looked up): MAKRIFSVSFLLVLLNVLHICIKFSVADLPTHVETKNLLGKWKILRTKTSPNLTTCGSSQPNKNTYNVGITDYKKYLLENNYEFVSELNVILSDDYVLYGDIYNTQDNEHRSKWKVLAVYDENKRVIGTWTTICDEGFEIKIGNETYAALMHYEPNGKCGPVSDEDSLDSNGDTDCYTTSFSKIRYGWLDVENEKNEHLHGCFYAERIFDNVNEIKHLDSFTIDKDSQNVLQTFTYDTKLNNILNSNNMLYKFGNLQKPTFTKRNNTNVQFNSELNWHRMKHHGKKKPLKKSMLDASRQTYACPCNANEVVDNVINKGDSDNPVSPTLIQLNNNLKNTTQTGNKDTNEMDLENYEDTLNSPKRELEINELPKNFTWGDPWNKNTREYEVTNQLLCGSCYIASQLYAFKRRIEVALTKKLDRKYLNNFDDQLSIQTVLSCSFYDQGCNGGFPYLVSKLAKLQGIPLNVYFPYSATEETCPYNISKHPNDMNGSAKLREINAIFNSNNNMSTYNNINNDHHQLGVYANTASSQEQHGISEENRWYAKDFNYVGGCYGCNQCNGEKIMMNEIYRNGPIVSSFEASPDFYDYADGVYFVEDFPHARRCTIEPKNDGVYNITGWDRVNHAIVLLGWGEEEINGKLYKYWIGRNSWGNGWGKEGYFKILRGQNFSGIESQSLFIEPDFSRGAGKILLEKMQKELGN
row,SMILES,% Inhibition @ 10 uM [%]
1,Cc1ccc2nc(NCCCO)nc(-c3ccccc3)c2c1,-10.8
2,CN(CC(=O)N1CCN(C2CCCCC2)CC1)S(=O)(=O)c1ccc2[nH]c(-c3ccccc3)nc2c1,3.57
3,COc1cc(/C=C2\N=C(c3ccccc3)OC2=O)ccc1OCc1c(C)no[n+]1[O-],23.4
4,C=CCn1c(=S)[nH]c2ccccc2c1=O,4.52
5,CCc1ccc(-c2nc(CSCC(=O)NC(C)CC)c(C)o2)cc1 (stereo not shown),2.37
6,O=C(CSc1nnc(COc2ccc(Cl)cc2)o1)N1CCCCC1,0.738
7,O=C(O)COc1ccc(/C=C2/SC(=O)NC2=O)cc1,4.86
8,COC(=O)c1cc(S(=O)(=O)NC2CCC(C)CC2)cn1C (stereo not shown),-6.59
9,COc1cc(C2C3=C(O)CC(C)(C)CC3=NC(C)=C2C(=O)Nc2cccc(C)n2)cc(OC)c1OC (stereo not shown),-5.79
10,Cc1ccccc1CN(CC(C)O)CC(C)O (stereo not shown),3.48
11,Cc1cc(C)c(C)c(S(=O)(=O)NCc2ccc(C(=O)NCC3CCCO3)cc2)c1C (stereo not shown),-2.85
12,O=C(Nc1nccs1)c1ccc(COc2ccc(Cl)cc2Cl)o1,1.92
13,CCCOc1ccc(CNC(=O)C(C)n2nc(C)c3sc4ccccc4c3c2=O)cc1 (stereo not shown),-4.26
14,Cc1cccc(OCCCCn2ccnc2)c1,-2.28
15,COc1cc(CNCCSc2nnnn2C)cc(Br)c1OCC(N)=O,-1.71
16,COc1ccc(CC(C)NCc2ccc(C(F)(F)F)cc2)cc1 (stereo not shown),1.26
17,COC(=O)Nc1ccccc1C(=O)N1CCN(c2ccc(C)cc2)CC1,-2.76
18,Cc1nn(Cc2ccccc2)c(C)c1NC(=O)CSc1nc2sc3c(c2c(=O)n1C)CCC3,-1.28
19,COc1cc(/C=C2\SC(=O)N(Cc3ccc(F)cc3)C2=O)cc(OC)c1OC,3.8
20,CCCNC(=O)c1nc(C)c(C)nc1C(=O)Nc1ccccc1C,-0.487
21,COCCCNC(=O)c1cc(-c2ccc(OC)cc2OC)nc2ccccc12,-7.09
22,Cc1cccc(-c2nc(O)c3c(n2)Oc2ccccc2C3)c1,12.6
23,CCCSc1nc(O)c(CC)c(=O)n1-c1ccccc1,3.47
24,c1ccc(-c2cc(-c3ccccc3)n3ncnc3n2)cc1,5.93
25,COc1cccc(-n2c(C)cc(/C=C3\C(=N)N4C(C)=CSC4=NC3=O)c2C)c1,2.25

row,SMILES,% Inhibition @ 10 uM [%]
1,NC(CSC12CC3CC(CC(C3)C1)C2)C(=O)O (stereo not shown),1.66
2,COC(=O)c1cc(-c2ccco2)c2c(=O)[nH]c(=O)n(C)c2n1,-4.07
3,C=CCO/C(O)=C1\C(C)=Nc2nnnn2C1c1cccc(OC)c1OC (stereo not shown),-1.62
4,CCN(CC)CCNC(=O)C1CCN(c2nnc(C)c3c(C)n(-c4ccc(C)cc4)nc23)CC1,4.23
5,CCN1C(=O)c2cccc3c(S(=O)(=O)N(C)C)ccc1c23,-3.09
6,COC(=O)c1[nH]c2ccc(C)cc2c1NC(C)=O,0.0198
7,CC1=C(C(=O)Nc2ccccn2)C(c2cccc(Cl)c2Cl)C2=C(O)CC(C)(C)CC2=N1 (stereo not shown),4.7
8,CCCN(C(=O)c1ccco1)c1nc(-c2cccc(Cl)c2)cs1,11.9
9,O=C(O)CP(=O)(O)c1ccc(Cl)cc1,-1.97
10,COc1ccc(Br)cc1CNC1CCCCC1C (stereo not shown),-6.08
11,O=C(CCc1nc2ccccc2[nH]1)N1CCN(C(=O)c2ccco2)CC1,0.738
12,COc1ccc(NCC(O)Cn2c(C)c(C)c3ccccc32)cc1 (stereo not shown),3.53
13,COc1ccc(OC)c(C2NCCc3[nH]cnc32)c1 (stereo not shown),0.774
14,O=C(O)CCCCCNC(=O)/C(=C/c1ccc(Cl)cc1)NC(=O)c1ccccc1,8.6
15,CCCCn1c2c(c3ccccc31)CCc1nonc1-2,-2.15
16,Cc1ccc(OCC(=O)Nc2ccc(O)cc2)c(C)c1,-5.6
17,COc1cccc(C(=O)Nc2ccc(F)c(Cl)c2)c1,-2.22
18,CCN(CC)c1nc(C)cc(COC)c1C#N,1.72
19,Cc1cc(C(=O)C(=O)Nc2nnc(-c3ccncc3)s2)c(C)n1-c1ccccc1,3.92
20,Cc1nn(-c2ccccc2)c2c1C(C(F)(F)F)(C(F)(F)F)C(C#N)=C(N)O2,-0.25
21,CCOC(=O)c1sc2nc(N)c(C#N)cc2c1N,-1.07
22,COc1ccc(Cc2nc3c4cnn(-c5ccc(C)c(C)c5)c4ncn3n2)cc1OC,0.569
23,Fc1ccc(N2CCN(Cc3nc(-c4ccccc4)no3)CC2)cc1,-5.7
24,O=C(NCCSc1c(-c2ccc(Br)cc2)[nH]c2ccccc12)c1ccncc1,-1.73
25,COc1ccc(NC(=O)c2cc(Cl)cc(Cl)c2OC)cc1,0.989

row,SMILES,% Inhibition @ 10 uM [%]
1,Cc1ccc2nsnc2c1S(=O)(=O)Nc1cccc2nsnc12,-4.89
2,CCC(CO)NS(=O)(=O)c1cc(-c2nn(C)c(=O)c3ccccc23)ccc1C (stereo not shown),-5.85
3,O=C(NCc1ccccc1Cl)C1CCN(S(=O)(=O)N2CCCCCC2)CC1,4.36
4,Cc1c2cnn(CC(=O)N3CCCCCC3)c(=O)c2c(C)n1Cc1ccc(Cl)cc1,-0.447
5,CCN1CCN(C(=O)c2ccc(CS(=O)Cc3ccc(C)cc3)o2)CC1 (stereo not shown),0.677
6,C=CCc1cc(C=C2C(=O)c3ccccc3C2=O)cc(OCC)c1O,0.343
7,CN(C)c1ccc(/C=C(\NC(=O)c2ccccc2)C(=O)NCCO)cc1,4.08
8,CCOC(=O)c1ccc2nc(C(F)(F)F)nc(N3CC(C)OC(C)C3)c2c1 (stereo not shown),-4.78
9,Cn1c(=O)c2ccccc2n2c(CCC(=O)NCCc3ccccc3)nnc12,-2.42
10,O=C(NCc1ccc(F)cc1)C1=Cc2sc3c(c2CS1)CCCC3,-2.65
11,COc1cccc(C2=NS(=O)(=O)N(C)C(C(=O)N3CCN(C(=O)C(C)(C)C)CC3)=C2)c1,2.32
12,CC1=NN(c2ccc(Cl)c(Cl)c2)C(=O)/C1=C/c1cc2ccccc2[nH]1,0.219
13,CC(C)(C)OC(=O)N[C@@H](Cc1cn(C=O)c2ccccc12)C(=O)NCC#N,-5.21
14,CCC1CCCCN1S(=O)(=O)c1ccc2nc(O)cc(C(=O)NCCCN3CCCCC3)c2c1 (stereo not shown),2.05
15,Cc1sc2ncnc(SC(C)C(=O)O)c2c1C (stereo not shown),5.75
16,CC1CCN(C(=O)Cn2cnc3c(nnn3Cc3ccccc3F)c2=O)CC1,24
17,Nc1ncc(-c2ccc([N+](=O)[O-])cc2)cn1,3.53
18,Cc1cccc(-c2nnn(-c3cccc(Cl)c3C)n2)c1,-5.33
19,COc1cc2c(cc1OC)CN(Cc1cc(Br)cs1)CC2,0.605
20,Cc1ccc(OCC(=O)Nc2ccc(Cl)cc2)cc1,-2.28
21,Cc1cccn2c(=O)c(/C=C(\C#N)C(=O)NCc3ccccc3)c(Oc3ccccc3)nc12,0.101
22,O=C1N/C(=C/c2ccc3c(c2)OCCO3)C(=O)N1Cc1ccc(F)cc1,1.91
23,COc1nc(C)ccc1-c1noc(-c2ccccc2C)n1,0.415
24,CCN1CCCC1CNC(=O)CSCc1nc(-c2ccccc2C)oc1C (stereo not shown),3.99
25,N#Cc1c2n(c3c(O)ncnc13)CCCCC2,1.9

row,SMILES,% Inhibition @ 10 uM [%]
1,COc1ccc(S(=O)(=O)Cc2ccc(C(=O)N3CCCCC3)o2)cc1,-3.09
2,CCOc1cccc(NC(=O)c2cccc(C)c2)c1,6.43
3,CCC(Sc1nc2nnc(C)c-2c(N)n1-c1ccc(Cl)c(C)c1)C(=O)N(CC)CC (stereo not shown),-0.256
4,CCC(=O)NC1(C(F)(F)F)C(=O)Nc2c1c(=O)[nH]c(=O)n2-c1ccc(C)cc1 (stereo not shown),2.42
5,COc1ccc(NC(=O)CSCc2ccc(Br)cc2)cc1,-3.16
6,CCc1ccc(/C=N/n2c(C)nnc2-n2nc(C)cc2C)cc1,4.18
7,CCN(CC)S(=O)(=O)c1cc(C(=O)Nc2nnc(-c3ccccc3)s2)ccc1C,0.997
8,O=[N+]([O-])c1ccc(N2CCN(Cc3ccc4c(c3)OCO4)CC2)cc1,-3.56
9,C=Cc1ccc(Cn2c(C(=O)O)c(CNCc3ccccc3OCC)c3ccccc32)cc1,-1.09
10,CN1CCC(N(C)Cc2cc([N+](=O)[O-])ccc2Cl)CC1,-6.21
11,Cc1cc(OCCCCOc2ccc(S(N)(=O)=O)c(C)c2)ccc1S(N)(=O)=O,1.52
12,CCCc1nc2nc(C)cc(N3CCN(Cc4ccccc4)CC3)n2n1,-5.63
13,c1ccc2c(c1)nc(N1CCOCC1)n2CCN1CCOCC1,7.99
14,CCCN1C/C(=C\c2cccc3ccccc23)C(=O)/C(=C/c2cccc3ccccc23)C1,4.54
15,CCCCc1ccc(NC(=O)C(c2ccccc2)c2ccccc2)cc1,1.62
16,CN(C)C(=O)C1C2NC(=S)NC1(C)Oc1ccccc12 (stereo not shown),-0.284
17,COc1ccc(-n2c(C)nnc2SCc2nc(-c3cccs3)no2)cc1,-2.21
18,CC1CCCCC1NC(=O)CCCc1nnc2n(C)c(=O)c3sccc3n12 (stereo not shown),-8.11
19,Cc1ccc2c(CNCc3ccc4c(c3)OCO4)c(C(=O)O)n(Cc3ccccc3C)c2c1,6.57
20,CCOC(=O)N1CCC(NC(=O)COCc2cc(-c3ccc(F)cc3)on2)CC1,-2.13
21,COc1cc(CNC(=O)Cn2nc(C(F)(F)F)c(Br)c2C)cc(OC)c1,0.64
22,O=C1c2n[nH]c(-c3ccccc3O)c2C(c2ccccc2)N1Cc1ccco1 (stereo not shown),0.366
23,O=C1C2C3CCC(C3)C2C(=O)N1CNc1ccc(F)cc1 (stereo not shown),-1.12
24,CCC(C)NC(=O)C1=C(C)C(=O)OC12CCC(C)CC2 (stereo not shown),-3.7
25,COc1ccccc1CN1CCN(c2ccc(Cl)cc2)CC1,0.708
